Measured values published in article PMC4336329 (PLoS ONE, 2015).
About 14,000 (4.5%) of roughly 310,000 compounds showed an effect of 50% or more. The effect is printed as a negative number. The list shows a part of the results.

These compounds were tested against human ether-à-go-go-related gene (hERG) potassium channel (human, UniProt Q12809) (assay: primary screen, population patch clamp on CHO cells stably expressing hERG).
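Also: peak tail current of the secondary pulse compared with the same well before compound.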

Chain of human ether-à-go-go-related gene (hERG) potassium channel (Q12809 whole entry, looked up): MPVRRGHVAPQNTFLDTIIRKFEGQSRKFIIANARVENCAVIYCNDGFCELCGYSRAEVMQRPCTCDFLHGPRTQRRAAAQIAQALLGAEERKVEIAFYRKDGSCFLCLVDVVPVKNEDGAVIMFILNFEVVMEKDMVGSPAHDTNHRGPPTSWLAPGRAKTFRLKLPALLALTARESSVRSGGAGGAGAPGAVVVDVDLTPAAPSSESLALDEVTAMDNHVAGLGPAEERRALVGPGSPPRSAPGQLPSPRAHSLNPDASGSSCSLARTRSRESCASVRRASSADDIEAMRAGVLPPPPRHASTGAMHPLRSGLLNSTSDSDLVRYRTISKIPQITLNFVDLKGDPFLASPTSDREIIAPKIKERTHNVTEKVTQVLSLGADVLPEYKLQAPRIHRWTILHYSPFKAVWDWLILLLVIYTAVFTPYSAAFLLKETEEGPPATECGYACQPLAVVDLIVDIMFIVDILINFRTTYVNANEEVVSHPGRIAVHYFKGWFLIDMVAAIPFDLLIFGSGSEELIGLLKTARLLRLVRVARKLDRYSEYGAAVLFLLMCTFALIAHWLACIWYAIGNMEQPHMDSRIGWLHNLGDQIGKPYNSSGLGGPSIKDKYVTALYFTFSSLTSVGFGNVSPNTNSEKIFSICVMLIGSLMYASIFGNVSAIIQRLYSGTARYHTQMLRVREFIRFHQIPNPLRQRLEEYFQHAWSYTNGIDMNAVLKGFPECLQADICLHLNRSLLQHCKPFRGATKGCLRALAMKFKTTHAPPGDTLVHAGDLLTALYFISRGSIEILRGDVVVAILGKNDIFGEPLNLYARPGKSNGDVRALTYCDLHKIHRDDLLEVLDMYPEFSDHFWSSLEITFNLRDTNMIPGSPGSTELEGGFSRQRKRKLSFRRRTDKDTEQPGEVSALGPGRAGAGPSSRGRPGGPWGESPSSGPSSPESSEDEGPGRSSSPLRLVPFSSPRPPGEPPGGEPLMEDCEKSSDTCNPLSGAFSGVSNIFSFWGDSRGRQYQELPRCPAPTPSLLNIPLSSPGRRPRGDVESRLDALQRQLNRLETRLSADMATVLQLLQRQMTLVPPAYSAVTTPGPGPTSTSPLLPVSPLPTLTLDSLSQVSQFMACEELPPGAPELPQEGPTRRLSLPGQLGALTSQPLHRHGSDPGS

| Structure (SMILES) | hERG current change (%, negative = inhibition) at 10uM [%] |
| --- | --- |
| CC(NC(=O)C(=O)N1CCCCC1)C(c1cccs1)N1CCN(c2ccccc2F)CC1 (stereo not drawn) | 1.73 |
| CN(C)c1oc(COc2ccccc2F)nc1C#N | -11.7 |
| CN(CCO)Cc1csc2ccc(Br)cc12.Cl | -9.69 |
| O=C(OCC(=O)N1CCc2ccccc21)c1cncc(Br)c1 | 2.65 |
| COc1ccc(-c2nc3n(c(=O)c2C#N)CCS3)c(OC)c1 | -1.78 |
| O=C(O)CCC(=O)NNC(=O)c1ccc(Br)cc1 | 7.04 |
| COC(=O)CSc1[nH]c(=O)cc(C)c1C#N | 19.9 |
| COc1cccc(-c2nc(CS(=O)(=O)CC(=O)NCCC(C)C)c(C)o2)c1 | -10.7 |
| CCOC(=O)c1cc(-c2ccccc2)nc2nc(N3CCCCC3)sc12 | 4.04 |
| COc1cc(CC(=O)NCCc2ccc(OCc3ccccc3)cc2)c([N+](=O)[O-])cc1OC | -0.949 |
| CCOc1ccc(NC(=O)c2ccc(N3CC4CC(C3)c3cccc(=O)n3C4)c(NC(=O)CCN3CCOCC3)c2)cc1 (stereo not drawn) | -12.1 |
| CCOC(=O)CN1C(=O)NC2(CCCc3ccccc32)C1=O (stereo not drawn) | 12.6 |
| CC(=O)Nc1ccc(SC[C@H](CC(C)C)N2CCN(CCc3ccccc3)CCC2=O)cc1 | -59.1 |
| CCC1Oc2ccccc2N(CC(=O)Nc2ccc(OC)cc2OC)C1=O (stereo not drawn) | 13.5 |
| COc1ccc(Nc2c3ccccc3nc3ccccc23)cc1 | -69.6 |
| O=c1[nH]c(/C=C\c2cccnc2)c([N+](=O)[O-])c(=O)[nH]1 | 11.7 |
| CCCCCN(C(=O)CCC(=O)OCC(=O)c1c(C)cc(C)cc1C)c1c(N)n(CCCC)c(=O)[nH]c1=O | -28.1 |
| CC(C)CN1C(=O)c2ccc(C(=O)Nc3ccc(O)cc3C(=O)O)cc2C1=O | 15 |
| O=C(COc1ccc2c3c(c(=O)oc2c1)CCC3)N1CCN(c2ccc(F)cc2)CC1 | -24.2 |
| COc1ccc(/C=C/C(=O)Nc2nnc(C(C)C)s2)cc1OC | 6.49 |
| Fc1cccc(Cl)c1Cn1ncc2ccccc21 | -7.36 |
| C/C(=N\NC(=O)c1ccc(N(C)C)cc1)c1ccc(C)c(C)c1 | -14.5 |
| O=C(CCN1CCN(Cc2ccccc2)CC1)Nc1cccc(Br)c1 | -63 |
| CCCCCCNC(=O)Cc1c(O)c2ccccc2[nH]c1=O | 3.59 |
| Cc1nnc(N2C(=O)C(=O)/C(=C(/O)c3ccc4c(c3)OCCO4)C2c2ccc([N+](=O)[O-])cc2)s1 (stereo not drawn) | 19.9 |
| Cc1ccc(NC(=S)N(CCCN2CCCC2)Cc2cccn2Cc2ccc(Cl)cc2)cc1C | 4.72 |
| COC(=O)CCC(=O)N1CN2CN(C(=O)CCC(=O)OC)CC([N+](=O)[O-])(C2)C1 | -7.66 |

| Structure (SMILES) | hERG current change (%, negative = inhibition) at 10uM [%] |
| --- | --- |
| CN(C)c1ccc(CNc2nc(-c3ccccc3)nn2S(C)(=O)=O)cc1 | 9.74 |
| CC1=C(C(=O)Nc2ccccc2)C(c2ccncc2)C(C#N)=C(SCC(=O)NC(C)C)N1 (stereo not drawn) | 1.55 |
| COC(=O)CC(NC(=O)C1CC1)c1ccc2c(c1)OCO2 (stereo not drawn) | -5.76 |
| O=C(Nc1cccc2ccccc12)NC(Cc1ccccc1)C(=O)O (stereo not drawn) | 22.4 |
| C=CCn1c(=O)c(C(=O)NCc2ccccc2)c(O)c2ccccc21 | 15.4 |
| COc1ccc(C(=O)Oc2cc(C)c(CN3CCOCC3)cc2C)cc1OC | -34.2 |
| CC1(C)CC(NC(=S)NC(=O)c2cc(Br)ccc2Cl)CC(C)(C)N1 | -53.3 |
| CN1/C(=C\C=C2\N=C(c3ccc(F)cc3)OC2=O)C(C)(C)c2ccccc21 | -8.98 |
| COc1ccc(CCNc2nnc(C)c(=O)[nH]2)cc1OC | -3.67 |
| CCCCn1c(N)c(N(C(=O)CSc2nnc(C)n2-c2ccccc2)C2CCCC2)c(=O)[nH]c1=O | 2.38 |
| Cc1cc(C(=O)CSc2nnc(N)s2)c(C)n1C1CC1 | 3.28 |
| COc1ccccc1NS(=O)(=O)c1ccc(O)c(C(=O)OCC(=O)c2ccc(Cl)cc2Cl)c1 | 23.4 |
| N#C/C=C(/c1ccc(F)cc1)N1CCOCC1 | 15.5 |
| CCCCC(=O)Oc1c(S(=O)(=O)c2ccccc2)c(C)nn1C(C)(C)C | 5.46 |
| CN(C(=O)COC(=O)CNC(=O)c1ccc2ccccc2c1)c1c(N)n(Cc2ccccc2)c(=O)[nH]c1=O | -42.6 |
| CC(=O)N1CCN(c2ccc(NC(=O)C(C)Oc3ccc(Cl)cc3Cl)cc2)CC1 (stereo not drawn) | -39.6 |
| Cc1noc(C)c1S(=O)(=O)N1CCN(C(c2ccccc2)c2ccc(Cl)cc2)CC1 (stereo not drawn) | -5.9 |
| CN(C(=O)Cn1cc(C(F)(F)F)cc(Cl)c1=O)C1CCS(=O)(=O)C1 (stereo not drawn) | 0.375 |
| Oc1c(Br)cc(Br)cc1CNn1cnnc1 | 21.5 |
| Cc1cccc(N(Cc2ccccc2)C(=O)Cc2ccc(S(=O)(=O)N3CCOCC3)s2)c1 | -29.1 |
| Cc1ccc(NS(=O)(=O)c2cc([N+](=O)[O-])ccc2N/N=C/c2sc(N3CCOCC3)nc2-c2ccccc2)c(C)c1 | 8.06 |
| Cc1noc(N)c1C1(O)C(=O)N(C(C)C)c2ccccc21 (stereo not drawn) | 8.01 |
| O=C(Nc1ccccn1)c1cc(-n2cnnc2)ccc1Cl | -21.6 |
| Cc1cc(C(=O)N2CCCC(C(=O)c3cc(F)ccc3F)C2)c(C)o1 (stereo not drawn) | -4.31 |
| CCC(C(=O)NC1CCCC1)N(C(=O)c1snc(C(N)=O)c1N)c1ccc2c(c1)OCCO2 (stereo not drawn) | 3.65 |
| Cc1cc2nc(-c3ccc(=O)[nH]c3)n(C)c2cc1C | 10.4 |
| CCCN(C(=O)c1cn(C)c(=O)c2ccccc12)c1ccccc1C | -5.38 |
